From PubChem BioAssay AID488969 (Vanderbilt High Throughput Screening Facility, 2010)
The full ranking holds about 110,000 compounds; the median of “z-score” is about -0.1, and the highest 2% start at about 2. The list shows a part of the results. Activity calls are given as the source filed them.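 The calls were made as follows: active = z-score in the third read window above 3 or below -3; inactive = the rest.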

molecular target: Metabotropic glutamate receptor 8 (Rattus norvegicus) (UniProt P70579); experiment: rat mGluR8 modulators via GIRK flux, primary screen, cell-based, thallium flux, HTS (AID 488969); conditions: HEK293 rat mGluR8, GIRK (G protein-gated inwardly rectifying potassium channel) thallium flux, FluoZin2; at 10 µM; stronger effect = higher value; submaximal glutamate (EC20) added with thallium
Sequence of UniProt P70579 (P70579 whole entry, looked up): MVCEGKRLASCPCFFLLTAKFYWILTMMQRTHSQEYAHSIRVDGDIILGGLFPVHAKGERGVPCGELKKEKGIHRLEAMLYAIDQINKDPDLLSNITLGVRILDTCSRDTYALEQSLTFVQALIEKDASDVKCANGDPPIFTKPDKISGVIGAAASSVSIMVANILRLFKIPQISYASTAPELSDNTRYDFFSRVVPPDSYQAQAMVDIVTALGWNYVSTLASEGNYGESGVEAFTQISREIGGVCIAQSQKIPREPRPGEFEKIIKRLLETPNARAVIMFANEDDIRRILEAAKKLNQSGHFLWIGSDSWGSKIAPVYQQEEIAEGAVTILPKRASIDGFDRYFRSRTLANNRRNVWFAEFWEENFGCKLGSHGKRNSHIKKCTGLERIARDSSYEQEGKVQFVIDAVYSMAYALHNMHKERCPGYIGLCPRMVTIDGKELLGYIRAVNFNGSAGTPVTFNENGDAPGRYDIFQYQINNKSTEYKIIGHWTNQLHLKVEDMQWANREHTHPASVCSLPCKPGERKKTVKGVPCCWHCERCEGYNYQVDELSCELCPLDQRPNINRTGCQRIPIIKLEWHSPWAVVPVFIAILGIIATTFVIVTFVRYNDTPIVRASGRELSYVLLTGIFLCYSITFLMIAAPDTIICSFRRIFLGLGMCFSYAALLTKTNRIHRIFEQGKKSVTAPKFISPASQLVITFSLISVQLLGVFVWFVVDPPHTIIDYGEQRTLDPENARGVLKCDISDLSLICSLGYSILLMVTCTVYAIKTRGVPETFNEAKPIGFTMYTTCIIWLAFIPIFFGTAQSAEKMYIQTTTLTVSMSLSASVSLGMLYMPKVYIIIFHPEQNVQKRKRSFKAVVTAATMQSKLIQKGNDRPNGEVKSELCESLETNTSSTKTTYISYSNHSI

Going from `Cc1ccc(C(=O)N2CCCC2)cc1Br` to `Cc1ccc(C(=O)N/N=C2\CCSC2)cc1[N+](=O)[O-]`, the z-score rises from -0.559 to -0.135.

First: Cc1cccc(Nc2nc3c(s2)CCCC3)c1
Second: Clc1ccc(-c2nnc(N3CCCC3)nn2)cc1
The z-score of the first is lower: 0.05 for the first, 0.101 for the second.

Compared with `O=S(=O)(c1cccc(C(F)(F)F)c1)N1CCN(C(=S)NC2CC2)CC1`, `CCc1ccccc1NC(=S)N1CCN(c2ccccn2)CC1` is higher in z-score: -0.421 for the first, -0.0733 for the second.

Going from `Cc1cc(NC(=O)CN2CCCCCCC2)no1` to `COc1ccc(C(C(=O)NC2CCCCC2)N2CCC3(CC2)OCCO3)cc1` (stereo unspecified), the z-score falls from -0.0461 to -0.185.

Going from `Cc1csc(NC(=O)CSc2ncc(-c3ccccc3)[nH]2)n1` to `CCn1c(SCC(=O)Nc2nc(-c3ccccc3)cs2)nnc1-c1ccccc1O`, the z-score falls from 0.148 to -0.347.

Compared with `CCc1ccc(NC2=NC(C(=O)c3ccccc3)CC(=O)N2)cc1` (stereo unspecified), `CC1(C)SC(=S)N(/N=C/c2ccccc2)C1N(O)C(=O)Nc1ccc([N+](=O)[O-])cc1` (stereo unspecified) is higher in z-score: -0.0127 for the first, 0.00757 for the second.

Compared with `CC(NC(=O)COC(=O)c1cn(-c2ccccc2)nc1-c1cccs1)c1ccccc1` (stereo unspecified), `Cn1c(NC(=O)c2ccccc2)c(-c2ccccn2)c(=O)c2ccccc21` is higher in z-score: -0.567 for the first, 1.03 for the second.

First: O=C(CSc1nnc(CN2CCOCC2)n1-c1ccc(Cl)cc1)Nc1cc(Cl)ccc1O
Second: O=C(O)c1cc(-c2ccc(N3CCOCC3)cc2)nn1-c1ccc(F)cc1F
The z-score of the first is lower: -0.794 for the first, 0.0374 for the second.

Going from `CN1CCN(C(=O)N2CCNC2=O)CC1` to `CCOC(=O)N1CCN(C(=O)c2cc3c(ccc4ccccc43)oc2=O)CC1`, the z-score rises from -0.196 to -0.104.

Going from `CCCCN(CC)CCNC(=O)c1cc2c(=O)n(C)c3ccccc3c2n1C` to `CCCCNC(=O)CCCCCn1c(=O)[nH]c2cc(OC)c(OC)cc2c1=O`, the z-score falls from 2.85 to -0.54.

Going from `N#CCSc1nnc2ccc3ccccc3n12` to `Nc1ccccc1-c1nnc(SCc2ccccc2F)[nH]c1=O`, the z-score rises from -0.272 to 0.143.

First: CCOC(=O)CCSc1nc(-c2ccccc2)cc(C(F)(F)F)n1
Second: CC(Sc1nc(-c2ccccc2)cc(C(F)(F)F)n1)C(=O)Nc1ccc2c(c1)OCO2 (stereo unspecified)
The z-score of the first is lower: -0.219 for the first, -0.185 for the second.

Going from `c1ccc2c(c1)C(=Nn1cnnc1)c1ccccc1-2` to `O=C(Nc1ccccc1-c1ccccc1NC(=O)c1ccco1)c1ccco1`, the z-score falls from 0.588 to 0.183.

Going from `CC(=O)N1CCC2(CC1)C(C#N)=C(N)Oc1n[nH]c(CSc3ccc(C)cc3)c12` to `CC(=O)C1=C(C)NC(SCC(N)=O)=C(C#N)C1c1cccs1` (stereo unspecified), the z-score rises from -0.602 to 0.57.

Going from `C=CCc1ccc(OCC(O)CN2CCCCC2C)c(OC)c1` (stereo unspecified) to `CCC1CCCCN1CCCNC(=O)c1ccc(CS(=O)(=O)Cc2ccccc2F)o1` (stereo unspecified), the z-score falls from 1.53 to 0.299.

Going from `Cc1c(C(=O)NNS(=O)(=O)c2ccccc2)sc(=S)n1C` to `CCn1c(SCC(=O)c2ccc(NS(=O)(=O)c3ccccc3)cc2)nnc1-c1cccs1`, the z-score falls from -0.0997 to -0.729.

Going from `Cc1cc(Cl)ccc1OCCCC(=O)N1CCN(C(=O)c2ccco2)CC1` to `C/C(=C\c1ccccc1)CN1CCN(c2cccc(Cl)c2)CC1`, the z-score rises from -1.24 to 0.0576.

Compared with `COc1ccc(S(=O)(=O)N(C)C)cc1NC(=O)[C@H](Cc1ccccc1)N1C(=O)c2ccccc2C1=O`, `COc1cnn(-c2ccc(C)cc2)c(=O)c1SCc1ccccc1` is lower in z-score: -0.291 for the first, -0.312 for the second.

Compared with `CC(=O)C1C(c2ccc(F)cc2)C2C(C)=NN=C2CC1(C)O` (stereo unspecified), `COc1cccc(C2CC(c3ccc(F)cc3)Nc3nc(N)nn32)c1` (stereo unspecified) is higher in z-score: -0.0401 for the first, 0.0383 for the second.

Going from `O=C(COC(=O)c1ccco1)Nc1ccccc1` to `O=C(CC1Sc2ncnn2C1=O)Nc1ccccc1` (stereo unspecified), the z-score falls from 0.158 to 0.138.

Going from `Cc1ccc(CS/C(Nc2ccccc2C)=C(\C#N)C(=O)NCc2ccco2)c(C)c1` to `Cc1ccccc1Cn1nc(C)c(NC(=O)c2noc3c2CCc2ccccc2-3)c1C`, the z-score rises from -0.133 to -0.057.

First: CCOC(=O)c1cc(CC)sc1NC(=O)CC1Sc2ccc(C(F)(F)F)cc2NC1=O (stereo unspecified)
Second: CCCCn1nc2cc(C(=O)NCc3cc(C(F)(F)F)cc(C(F)(F)F)c3)ccc2c1OCC
The z-score of the first is lower: -0.0947 for the first, 0.0782 for the second.

Compared with `O=P(O)(O)c1ccccc1OCc1ccccc1`, `O=P(c1ccccc1)(c1ccccc1)C(O)c1ccco1` (stereo unspecified) is lower in z-score: 0.753 for the first, 0.0299 for the second.

Going from `COc1ccc(OC)c(NC(=O)c2cn(C)c(=O)c3cc(OC)c(OC)cc23)c1` to `CCCc1nnc(-c2cc(OC)c(OC)c(OC)c2)o1`, the z-score rises from -0.533 to 0.363.

Going from `Cc1ncsc1CCOC(=O)c1cccnc1` to `CCOC(=O)c1nn(-c2ccccc2F)c(C)c1C(C)=O`, the z-score falls from 0.213 to -0.0893.

Compared with `O=C1/C(=C\c2ccco2)SC(=S)N1Cc1ccccc1`, `Cc1ccn(Cc2n[nH]c(=S)n2Cc2ccccc2)n1` is higher in z-score: -0.152 for the first, 0.443 for the second.

Going from `FC(F)(F)c1cc(-c2ccc3c(c2)OCO3)nc(NCc2ccco2)n1` to `CCOC(=O)C1CCN(C(=O)CN(c2ccc3c(c2)OCCO3)S(C)(=O)=O)CC1`, the z-score rises from -1.5 to -0.102.

`CN(c1ccccc1C(=O)N1CCOCC1)S(C)(=O)=O` gave a z-score of 0.0693.

In the case of `Clc1ccc(Cc2ccc(SCc3ccccc3)nn2)c(Cl)c1`, the z-score is reported as active: 3.48.
